Reference: US20230145835A1, “Modulators of Alpha-4-beta-7 Integrin and MAdCAM” (48HD Biopharma Inc., priority 2021, published 2023)
Part of at least one peptide drawing is inferred or uncertain, most often the ends. Numbered stars: 1 amine (or outer) side, 2 acyl side, 3 side chain; on linkers, the order of the positions; unused ones are H or OH. Bridge positions count the residues as written; N and C are the ends. Peptide text beside a SMILES is read from it. X1 = O=C(C=NOCCCCCCOc1cc(C[*:2])cc(C[*:3])c1)[*:1]

Target: T1, rh-integrin α4β7/LPAM-1 (Homo sapiens, UniProt P13612+P26010)
T1 sequence (P13612 34-977 limits assumed): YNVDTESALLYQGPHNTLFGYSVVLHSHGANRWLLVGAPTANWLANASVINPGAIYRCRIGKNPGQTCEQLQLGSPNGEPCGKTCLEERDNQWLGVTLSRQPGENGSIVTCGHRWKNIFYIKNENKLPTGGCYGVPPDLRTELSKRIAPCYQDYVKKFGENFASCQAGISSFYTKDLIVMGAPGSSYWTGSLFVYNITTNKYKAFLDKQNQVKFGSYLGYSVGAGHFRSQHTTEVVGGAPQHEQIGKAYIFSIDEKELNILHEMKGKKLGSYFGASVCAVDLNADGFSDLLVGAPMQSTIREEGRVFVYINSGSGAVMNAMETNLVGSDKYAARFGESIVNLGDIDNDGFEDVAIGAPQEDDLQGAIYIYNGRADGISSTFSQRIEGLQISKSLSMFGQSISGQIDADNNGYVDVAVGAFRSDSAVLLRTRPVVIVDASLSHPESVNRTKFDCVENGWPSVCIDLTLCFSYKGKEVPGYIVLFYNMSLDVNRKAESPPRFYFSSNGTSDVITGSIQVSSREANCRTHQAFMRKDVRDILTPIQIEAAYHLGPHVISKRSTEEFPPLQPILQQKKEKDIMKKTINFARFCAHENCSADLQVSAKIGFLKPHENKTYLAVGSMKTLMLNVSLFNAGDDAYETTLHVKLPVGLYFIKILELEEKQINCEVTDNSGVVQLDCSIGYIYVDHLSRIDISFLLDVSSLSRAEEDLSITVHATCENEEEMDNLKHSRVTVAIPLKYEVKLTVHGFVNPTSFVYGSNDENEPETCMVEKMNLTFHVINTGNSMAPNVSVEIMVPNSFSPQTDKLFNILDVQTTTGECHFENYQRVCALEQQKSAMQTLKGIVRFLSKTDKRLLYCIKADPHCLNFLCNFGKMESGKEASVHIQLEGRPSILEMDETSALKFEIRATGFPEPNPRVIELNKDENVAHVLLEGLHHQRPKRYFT
T1 sequence (P26010 20-723 limits assumed): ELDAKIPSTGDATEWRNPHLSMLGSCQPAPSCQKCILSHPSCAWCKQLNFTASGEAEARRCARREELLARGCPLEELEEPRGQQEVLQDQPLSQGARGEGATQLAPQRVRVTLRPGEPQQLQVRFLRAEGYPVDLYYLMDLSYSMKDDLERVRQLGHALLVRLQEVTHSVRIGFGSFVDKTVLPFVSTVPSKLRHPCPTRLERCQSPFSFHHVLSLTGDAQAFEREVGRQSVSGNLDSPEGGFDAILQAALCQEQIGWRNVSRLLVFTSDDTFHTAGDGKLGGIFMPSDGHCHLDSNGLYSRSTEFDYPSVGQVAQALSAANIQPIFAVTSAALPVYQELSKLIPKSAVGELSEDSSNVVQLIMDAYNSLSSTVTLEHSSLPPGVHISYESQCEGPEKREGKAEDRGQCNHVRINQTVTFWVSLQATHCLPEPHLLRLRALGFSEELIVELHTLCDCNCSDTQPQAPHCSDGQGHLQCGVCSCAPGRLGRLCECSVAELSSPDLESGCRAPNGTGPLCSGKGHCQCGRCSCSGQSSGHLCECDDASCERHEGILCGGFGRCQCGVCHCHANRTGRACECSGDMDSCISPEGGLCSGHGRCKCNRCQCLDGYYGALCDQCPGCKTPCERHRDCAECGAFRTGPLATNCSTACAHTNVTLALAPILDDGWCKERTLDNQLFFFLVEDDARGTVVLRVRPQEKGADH
Assay: α4β7-MadCAM Competition ELISA (Example 4)
Format: binding
Details: 4 μg/mL α4β7 coated, MAdCAM and peptide mixture, 28° C.
Procedure: After washing with wash buffer, 200 μL assay buffer was added to each well and incubated for one hour at 28° C. After another wash with wash buffer, 100 μL of a MAdCAM and peptide mixture in assay buffer was added to each well and incubated for one hour at 28° C., followed by washing with wash buffer.

Compound | IC50 [µM]
CC[C@H](C)[C@@H]1NC(=O)[C@H](CCCNC(=N)N)NC(=O)CNC(=O)[C@H](Cc2ccc(O)cc2)NC(=O)[C@H](Cc2c[nH]c3ccccc23)NC(=O)[C@H](Cc2c[nH]cn2)NC(=O)[C@@H]2CSCc3cc(cc(c3)OCCCCCCON=CC(=O)N[C@@H](CC(N)=O)C(=O)N2)CSC[C@@H](C(=O)O)NC1=O [SEQ ID NO: 7] (NCHWYGRIC-OH; linker N-2-9 via X1; C-terminus assumed) | 63.8
C[C@@H](O)[C@@H]1NC(=O)[C@H](CC(=O)O)NC(=O)[C@@H]2CCCN2C(=O)[C@H](Cc2ccc(O)cc2)NC(=O)[C@@H]2CSCc3cc(cc(c3)OCCCCCCON=CC(=O)N[C@@H](CCC(=O)O)C(=O)N2)CSC[C@@H](C(=O)O)NC(=O)[C@H](Cc2c[nH]cn2)NC(=O)[C@H](Cc2ccc(O)cc2)NC1=O [SEQ ID NO: 27] (ECYPDTYHC-OH; linker N-2-9 via X1; C-terminus assumed) | 20.2
C[C@@H](O)[C@@H]1NC(=O)[C@H](CC(=O)O)NC(=O)[C@@H]2CCCN2C(=O)[C@H](Cc2ccccc2)NC(=O)[C@@H]2CSCc3cc(cc(c3)OCCCCCCON=CC(=O)N[C@@H](CC(=O)O)C(=O)N2)CSC[C@@H](C(=O)O)NC(=O)[C@H](Cc2c[nH]cn2)NC(=O)[C@H](Cc2ccc(O)cc2)NC1=O [SEQ ID NO: 28] (DCFPDTYHC-OH; linker N-2-9 via X1; C-terminus assumed) | 65.7
C[C@@H](O)[C@@H]1NC(=O)[C@H](CC(=O)O)NC(=O)[C@@H]2CCCN2C(=O)[C@H](Cc2ccc(O)cc2)NC(=O)[C@@H]2CSCc3cc(cc(c3)OCCCCCCON=CC(=O)N[C@@H](CC(=O)O)C(=O)N2)CSC[C@@H](C(=O)O)NC(=O)[C@H](Cc2c[nH]cn2)NC(=O)[C@H](Cc2ccccc2)NC1=O [SEQ ID NO: 29] (DCYPDTFHC-OH; linker N-2-9 via X1; C-terminus assumed) | 53.5
CC[C@H](C)[C@@H]1NC(=O)C=NOCCCCCCOc2cc3cc(c2)CSC[C@H](NC1=O)C(=O)N[C@@H](Cc1ccc(O)cc1)C(=O)N1CCC[C@H]1C(=O)N[C@@H](CC(=O)O)C(=O)N[C@@H]([C@@H](C)O)C(=O)N[C@@H](Cc1ccc(O)cc1)C(=O)N[C@@H](Cc1c[nH]cn1)C(=O)N[C@H](C(=O)O)CSC3 [SEQ ID NO: 30] (ICYPDTYHC-OH; linker N-2-9 via X1; C-terminus assumed) | 93.2
CC[C@H](C)[C@@H]1NC(=O)[C@H](CC(=O)O)NC(=O)[C@H](CCSC)NC(=O)[C@@H]2CCCN2C(=O)[C@@H]2CSCc3cc(cc(c3)OCCCCCCON=CC(=O)N[C@@H](C)C(=O)N2)CSC[C@@H](C(=O)O)NC(=O)[C@H]([C@@H](C)O)NC(=O)[C@@H]2CCCN2C1=O [SEQ ID NO: 46] (ACPMDIPTC-OH; linker N-2-9 via X1; C-terminus assumed) | 0.943
CC[C@H](C)[C@@H]1NC(=O)[C@H](CC(=O)O)NC(=O)[C@H](C)NC(=O)[C@@H]2CCCN2C(=O)[C@@H]2CSCc3cc(cc(c3)OCCCCCCON=CC(=O)N[C@@H](CCC(N)=O)C(=O)N2)CSC[C@@H](C(=O)O)NC(=O)[C@H]([C@@H](C)O)NC(=O)[C@@H]2CCCN2C1=O [SEQ ID NO: 48] (QCPADIPTC-OH; linker N-2-9 via X1; C-terminus assumed) | 43.7
CC[C@H](C)[C@@H]1NC(=O)[C@H](CC(=O)O)NC(=O)[C@H](CCSC)NC(=O)[C@@H]2CCCN2C(=O)[C@@H]2CSCc3cc(cc(c3)OCCCCCCON=CC(=O)N[C@@H](CCC(N)=O)C(=O)N2)CSC[C@@H](C(=O)O)NC(=O)[C@H](C)NC(=O)[C@@H]2CCCN2C1=O [SEQ ID NO: 52] (QCPMDIPAC-OH; linker N-2-9 via X1; C-terminus assumed) | 1.64
CC(C)C[C@@H]1NC(=O)[C@@H]2CCCN2C(=O)[C@@H]2CSCc3cc(cc(c3)OCCCCCCON=CC(=O)N[C@@H](C)C(=O)N2)CSC[C@@H](C(=O)O)NC(=O)[C@H](CO)NC(=O)[C@@H]2CCCN2C(=O)[C@H](C(C)C)NC(=O)[C@H](CC(=O)O)NC1=O [SEQ ID NO: 53] (ACPLDVPSC-OH; linker N-2-9 via X1; C-terminus assumed) | 31
CC(C)C[C@@H]1NC(=O)[C@H](C)NC(=O)[C@@H]2CSCc3cc(cc(c3)OCCCCCCON=CC(=O)N[C@@H](CCCCN)C(=O)N2)CSC[C@@H](C(=O)O)NC(=O)[C@H](CO)NC(=O)[C@@H]2CCCN2C(=O)[C@H](C(C)C)NC(=O)[C@H](CC(=O)O)NC1=O [SEQ ID NO: 54] (KCALDVPSC-OH; linker N-2-9 via X1; C-terminus assumed) | 4.01
CC(C)[C@@H]1NC(=O)[C@H](CC(=O)O)NC(=O)[C@H](C)NC(=O)[C@@H]2CCCN2C(=O)[C@@H]2CSCc3cc(cc(c3)OCCCCCCON=CC(=O)N[C@@H](CCCCN)C(=O)N2)CSC[C@@H](C(=O)O)NC(=O)[C@H](CO)NC(=O)[C@@H]2CCCN2C1=O [SEQ ID NO: 55] (KCPADVPSC-OH; linker N-2-9 via X1; C-terminus assumed) | 41.1
CSCC[C@@H]1NC(=O)[C@H](CO)NC(=O)[C@H](CC(=O)O)NC(=O)[C@@H]2CCCN2C(=O)[C@@H]2CSCc3cc(cc(c3)OCCCCCCON=CC(=O)N[C@@H](CC(=O)O)C(=O)N2)CSC[C@@H](C(=O)O)NC(=O)[C@H](CO)NC(=O)[C@H](Cc2c[nH]cn2)NC(=O)[C@H](C)NC1=O [SEQ ID NO: 62] (DCPDSMAHSC-OH; linker N-2-10 via X1; C-terminus assumed) | 13.8
CC[C@H](C)[C@@H]1NC(=O)[C@H](Cc2ccc(O)cc2)NC(=O)[C@H](CCCNC(=N)N)NC(=O)[C@H](CCC(=O)O)NC(=O)[C@H](C)NC(=O)[C@H](CC(=O)O)NC(=O)[C@@H]2CCCN2C(=O)[C@@H]2CSCc3cc(cc(c3)OCCCCCCON=CC(=O)N[C@@H](CC(=O)O)C(=O)N2)CSC[C@@H](C(=O)O)NC1=O [SEQ ID NO: 63] (DCPDAERYIC-OH; linker N-2-10 via X1; C-terminus assumed) | 1.46
CSCC[C@@H]1NC(=O)[C@H](CCCNC(=N)N)NC(=O)[C@@H]2CSCc3cc(cc(c3)OCCCCCCON=CC(=O)N[C@@H]([C@@H](C)O)C(=O)N2)CSC[C@@H](C(=O)O)NC(=O)[C@H](CC(=O)O)NC(=O)[C@H](CCC(N)=O)NC(=O)[C@H](Cc2ccccc2)NC(=O)[C@H](CC(=O)O)NC1=O [SEQ ID NO: 74] (TCRMDFQDC-OH; linker N-2-9 via X1; C-terminus assumed) | 499
CC(C)C[C@@H]1NC(=O)[C@@H]2CCCN2C(=O)[C@H](Cc2c[nH]c3ccccc23)NC(=O)[C@@H]2CCCN2C(=O)[C@@H]2CSCc3cc(cc(c3)OCCCCCCON=CC(=O)N[C@@H](CCC(=O)O)C(=O)N2)CSC[C@@H](C(=O)O)NC(=O)[C@H](CCC(N)=O)NC(=O)[C@@H]2CCCN2C1=O [SEQ ID NO: 75] (ECPWPLPQC-OH; linker N-2-9 via X1; C-terminus assumed) | 341
CSCC[C@@H]1NC(=O)[C@H](CCC(N)=O)NC(=O)[C@@H]2CSCc3cc(cc(c3)OCCCCCCON=CC(=O)N[C@@H](Cc3ccccc3)C(=O)N2)CSC[C@@H](C(=O)O)NC(=O)[C@H](C)NC(=O)[C@H](CCCCN)NC(=O)[C@H](CCC(=O)O)NC(=O)[C@H](Cc2ccccc2)NC1=O [SEQ ID NO: 77] (FCQMFEKAC-OH; linker N-2-9 via X1; C-terminus assumed) | 178
CSCC[C@@H]1NC(=O)C=NOCCCCCCOc2cc3cc(c2)CSC[C@H](NC1=O)C(=O)N[C@@H](Cc1ccc(O)cc1)C(=O)N1CCC[C@H]1C(=O)N[C@@H](CC(=O)O)C(=O)N[C@@H]([C@@H](C)O)C(=O)N[C@@H](Cc1ccc(O)cc1)C(=O)N[C@@H](Cc1c[nH]cn1)C(=O)N[C@H](C(=O)O)CSC3 [SEQ ID NO: 78] (MCYPDTYHC-OH; linker N-2-9 via X1; C-terminus assumed) | 167
